Read counts are not given, so values of variants with three or more changes are uncertain.

B1: LINE1-mini (parent)
chain: GGCAGAGCUCAACACAGCGUGGCAAAGUGGCUGUGGCUAGACUGCC

Variants of B1 are the subject of the series. Put plainly: self-cleavage, relative activity (ratio to wild type); higher = more cleavage; in vitro, sequencing; the parent is a self-cleaving ribozyme.
As to GGCAGAGCUCAACAGAGCGUGGCAAAGUGGCUGUGGCUGGACUGUC [C15G A39G C45U], the self-cleavage was determined as 0.06. For GGCAGAGCUCAACAGAGCGUGGUAAAAUGGCUGUGGCGAGACUGCC [C15G C23U G27A U38G], the self-cleavage was 0.01.

Consider GGCAGAGCUCAACAGAGCGUGGCAAAGUGGGUGUGGCUCGACUGCC [C15G C31G A39C], for which the self-cleavage amounted to 0.02. Next, GGCAGAGCUCAACAGAGCGUGGAAAGGUGGCUGUGUCUAGACUGCC [C15G C23A A26G G36U]: 0.02. Regarding GGCAGAGCUCAACAGAGCGUGGGAUAGUGGCUGUGGCUAGACUGCC [C15G C23G A25U], the self-cleavage came out at 0.03.

On to GGCAGAGCUCAACAGAGCGUGGAAAAGUGGGUGUGGCUAUAGUGCC [C15G C23A C31G G40U C42G], for which the self-cleavage is 0.03. Next, GGCAGAGCUCAACAGAACGUGGCAAAGUGGAUGUGGCUAUACUGCC [C15G G17A C31A G40U]: 0.03; GGCAGAGCUCAACAGAGGGAGGCAAAAUGGCUGUGGCUAGGCUGCC [C15G C18G U20A G27A A41G]: 0.02; GGCAGAGCUCAACAGAGCGUGGCAAAGUGGUGGUCGCUAGACUGCC [C15G C31U U32G G35C]: 0.02. On to GGCAGAGCUCAACAGAACGUGGCAAAGUGGCUGUGGCUAUACUGCC [C15G G17A G40U], for which the self-cleavage turned out to be 0.1. Next, GGCAGAGCUCAACAGAGCGUGGCAAAGUGGGUGUGGCUAUACUGCC [C15G C31G G40U]: 0.01; GGCAGAGCUCAACAGACCGUGGCAAAGUGGCUGUGGCUAUACUGCC [C15G G17C G40U]: 0.03; GGCAGAGCUCAACAGAGCGUGGUAAAGUGGCUGUGGCUAGUCUGCC [C15G C23U A41U]: 0.01. Next, GGCAGAGCUCAACAGAGCGUGGUAAAGUGGCUGUGGCUAGGCUGCC [C15G C23U A41G]: 0.1.

In the case of GGCAGAGCUCAACAGAGCGUGGCAAAGUGGGUGUGGCUAGUCUGGC [C15G C31G A41U C45G], the self-cleavage stood at 0.01. Next, GGCAGAGCUCAACAGAGGGUGGCCAAGUGGCUGUCGCUAGAUUGCC [C15G C18G A24C G35C C42U]: 0. Next, GGCAGAGCUCAACAGAACGUGGCAAAGAGGCUGUGGCUAGACUGCA [C15G G17A U28A C46A]: 0.02; GGCAGAGCUCAACAGAACUUGACAAAGUGGCUGUAGGUAGACUGCC [C15G G17A G19U G22A G35A C37G]: 0.02; GGCAGAGCUCAACAGAGAGUGCCAAAGUGGCUAUGGCUAGUCUCCC [C15G C18A G22C G33A A41U G44C]: 0. As for GGCAGAGCUCAACAGAGCGUGGUAAAGUGGCAGUGGCUCGACUGCC [C15G C23U U32A A39C], the self-cleavage was 0.01. Turning to GGCAGAGCUCAACAGAGCGUGGCAAAGUGGCUGUGGCUAGAAUCCC [C15G C42A G44C], the self-cleavage came to 0.02.

As for GGCAGAGCUCAACAGAGCGUGGUAAAGUGCCUCUGGCUCGACCGCC [C15G C23U G30C G33C A39C U43C], the self-cleavage was 0.02. Turning to GGCAGAGCUCAACAGAGCGUGGGAAAGUGGCUGUUGCUAGACUGCC [C15G C23G G35U], the self-cleavage worked out at 0.01.

Consider GGCAGAGCUCAACAGAGCGUGGAAAAGGGGCUGUGGCUAGACUGCC [C15G C23A U28G], for which the self-cleavage came to 0.06. On to GGCAGAGCUCAACAGAUCGUGCCAAAAUGGCUGUGGCUAGCCUGCC [C15G G17U G22C G27A A41C], for which the self-cleavage was determined as 0.04.

Regarding GGCAGAGCUCAACAGAGGGUGGCAAAGUGGCUGUGGCAAGACUGCC [C15G C18G U38A], the self-cleavage turned out to be 0.16. Next, GGCAGAGCUCAACAGAGCGUGGGAAAGUGGCCGCGGCUAGACUGCC [C15G C23G U32C U34C]: 0.01; GGCAGAGCUCAACAGAGCGUGGCAAAGUGGCUGUGGGUCGACUGCC [C15G C37G A39C]: 0.05; GGCAGAGCUCAACAGAGCGUGGUAAAGUGGCUGUGGCUAGACUGCU [C15G C23U C46U]: 0.02.

Take GGCAGAGCUCAACAGAGCGUGGCAAAGUGGCUGUGGCUCGACUGCA [C15G A39C C46A]: the self-cleavage came to 0.01. GGCAGAGCUCAACAGACCGUGGCAAAGUGGCUGUGGCUGGACUGUC [C15G G17C A39G C45U]: the self-cleavage came to 0.2. For GGCAGAGCUCAACAGAAAGUGGCAAAGUGGCUGUGGCUAGACUGCC [C15G G17A C18A], the self-cleavage is 0.05. Next, GGCAGAGCUCAACAGAGUGUGCCAAAGUGGCUGUGGCUAGACUGCC [C15G C18U G22C]: 0.02. Next, GGCAGAGCUCAACAGAGCGUGGAAAACAGGCUGUGGCUAGACUGCC [C15G C23A G27C U28A]: 0.34; GGCAGAGCUCAACAGACCGCGGCAAAGUGGCUGUGGCUACAUUGCC [C15G G17C U20C G40C C42U]: 0; GGCAGAGCUCAACAGAUCGUGGCAAAGCGGCUGUGGCCAGACUGCC [C15G G17U U28C U38C]: 0.09. Next, GGCAGAGCUCAACAGAGAGUGGCAAAGUGAAUGUGGCUAGACUGCC [C15G C18A G30A C31A]: 0.02; GGCAGAGCUCAACAGAGCGUGGCAAAGUGGCUGUGGCUAGAUUUCC [C15G C42U G44U]: 0.04.

For GGCAGAGCUCAACAGACCGGGGCAAAGUGGCUGUGGCUAGACUCCC [C15G G17C U20G G44C], the self-cleavage was 0.02. Next, GGCAGAGCUCAACAGAGAGUGGCAAAGUGGCUGUGGCUAGACUGCU [C15G C18A C46U]: 0.04; GGCAGAGCUCAACAGAGCAUGGCAAAGUGGCUGUGACUAUACUGCC [C15G G19A G36A G40U]: 0.04; GGCAGAGCUCAACAGAGCGUGGCAAAGUGGGUGCGGCUAGACUCCC [C15G C31G U34C G44C]: 0.01.

For the variant GGCAGAGCUCAACAGACCGUGGCAAAGUGGCUGUGGCUAGACUGUC [C15G G17C C45U], the self-cleavage was determined as 0.1.

As for GGCAGAGCUCAACAGAUCGUCGCAAAGUGGCUGUCGCUAGACUGCC [C15G G17U G21C G35C], the self-cleavage turned out to be 0.04. For the variant GGCAGAGCUCAACAGAGCGUGGCAAAGUGGCUGUGGCUAGCCUGGC [C15G A41C C45G], the self-cleavage was 0.02. Next, GGCAGAGCUCAACAGAGCGUGGCAAAGUGGCUGUGGCUAGCCUGAC [C15G A41C C45A]: 0.01; GGCAGAGCUCAACAGAGUGUGGCAAAGUGGCUGUGGGUAGACUGUC [C15G C18U C37G C45U]: 0.01. Next, GGCAGAGCUCAACAGAGGGUGGAAAAGUGGCUGUGGCUACACUGCC [C15G C18G C23A G40C]: 0.01; GGCAGAGCUCAACAGAGCGUGGAAAAGUGGCUGUGGCUAGAUUGCC [C15G C23A C42U]: 0.02. Next, GGCAGAGCUCAACAGAGCGUGGCAAAGUGGCUGUGGCUAGACUGGG [C15G C45G C46G]: 0.03. For GGCAGAGCUCAACAGAGAGUGGCAUAGUGGCUGUGGCUAGACUGCC [C15G C18A A25U], the self-cleavage is 0.01. With GGCAGAGCUCAACAGAUCGUGGCAAAGUGGCUGUGUCUAGACUGCC [C15G G17U G36U], the self-cleavage is 0.13.

GGCAGAGCUCAACAGAGCGUGGUAAAUUGGCUGUGGCUAGACUGCC [C15G C23U G27U]: the self-cleavage was 0.07. Next, GGCAGAGCUCAACAGAGCGUGGUAAAGUGGCUGUGGCUAGACUGGC [C15G C23U C45G]: 0.01; GGCAGAGCUCAACAGAGAGUGGCAAAGUGGCUAUGGCUAGACUGCC [C15G C18A G33A]: 0.02.

On to GGCAGAGCUCAACAGAGCGUGGCAAAGUGGCUGUGGCUAGGCCGCC [C15G A41G U43C], for which the self-cleavage is 0.01.

Values taken from the RNAGym collection of RNA variant scans (doi:10.7554/elife.90254).
